Consider 39 variants from the RNAGym collection of RNA variant scans (doi:10.7554/elife.90254).

The source gives no read counts; variants with many changes may rest on few reads.

The labels stand for the following.
B1: LINE1-full (parent)
chain: UACGUAGGUGGUUUUCCCCUGAUAGUGCUAAGGGGGCCUGGAAGUUUGGACUGGGCAGAGCUCAACACAGCGUGGCAAAGUGGCUGUGGCUAGACUGCCUCUCUGGAUUCCUCGUCACUCAGCAGGGCAUCUCUGAGAGAAAUGCC

In this series the parent is B1. The series is described as follows: self-cleavage, relative activity (ratio to wild type); higher = more cleavage; in vitro, sequencing; the parent is a self-cleaving ribozyme.
As to UACGUAGGUGGUUUUCCCCUGAUAGUGCUAAGGGGGCCUGGUAGUUUGGACUGGGCAGAGCUCAACACAGCGUGGCAAAGUGGCUGUGGCUAGACUGCCCCUCUGGAUUCCUCGUCACUCAGCAGGGCAACUCUGAGAGAAAUGCC [A42U U100C U130A], the self-cleavage was 2.01.
The same measure for UACGUAGGUGGUUUUCCCCUGAUAGUGCUAAGGGGGCCUGGACGUUUGGGCUGGGCAGAGCUCAACACAGCGUGGCAAAGUGGCUGUGGCUAGACUGCCUCUCUGGAUUCCUCGUCACUAAGCAGGGCAUCUCUGAGAGAAAUGCC [A43C A50G C120A]: 0.52; for UACGUAGGUGGUUUUCCCCUGAUAGUGCUAAGGGGGCCUGGACGCUUGGACUGGGCAGAGCUCAACACAGCGUGGCAAAGUGGCUGUGGCUAGACUGCCUCUUUGGAUUCCUCGUCACUCAGCAGGGCAUCUCUGAGAGAAAUGCC [A43C U45C C103U]: 1.05.
In the case of UACGUAGGUGGUUUUCCCCUGAUAGUGCUAAGGGGGCCUGGAGGUUUGGACUGGGCAGGGCUCAACACAGCGUGGCAAAGUGGCUGUGGCUAGACUGCCUCUCUGGAUUCCUCAUCACUCAGCAGGGCGUCUCUGAGAGAAAUGCC [A43G A59G G114A A129G], the self-cleavage was determined as 0.18.
As for UACGUAGGUGGUUUUCCCCUGAUAGUGCUAAGGGGGCCUGGUAGUUUGGACUGGGCAGAGCACAACACAGCGUGGCGAAGUGGCUGUGGCUAGACUGCCUCCCUGGAUUCCUCGUCUCUCAGCAGGGCAUCUCUGAGAGAAACGCC [A42U U62A A77G U102C A117U U143C], the self-cleavage was determined as 0.03.
The result for UACGUAGGUGGUUUUCCCCUGAUAGUGCUAAGGGGGCCUGGAGGUUUGGACUGGGCAGGGCUCAACACAGCGUGGCAGAGUGGCUGUGGCUAGACUGCCUCUCUGGAUUCCUCGUCACUCAGCAGGGCAUCUCUGAGAGAAAUGCC [A43G A59G A78G] reads 0.16; that for UACGUAGGUGGUUUUCCCCUGAUAGUGCUAAGGGGGCCUGGACGUUUGGACUGGGCAGAGCUCAACACAGCGUGGCAAAGUGGCUGUGGCUAGACUGCCACUCUGGAUUCCUCGUCACUCAGCUGGGCAUCUCUGAGAGAAAUGCC [A43C U100A A124U], 0.71; that for UACGUAGGUGGUUUUCCCCUGAUAGUGCUAAGGGGGCCUGGAGGUUUGGACUGGGCAGAGCUCAACGCAGCGUGGCAAAGUGGCUGUGGCUAGACUGCCUCUCUGGAUUCCUCGUCACUCAGCAGGGCAUCUCUGAGAGAAACGCC [A43G A67G U143C], 0.44.
Consider UACGUAGGUGGUUUUCCCCUGAUAGUGCUAAGGGGGCCUGGAGGUUUGGCCUGGGCAGAGCUCAACACAGCGUGGCAAAGUGGCUGUGGCUAGACUGCCUCUCUGGAUUCCUCGCCACUCAGCAGGGCAUCUCUGAGAGAAAUGCC [A43G A50C U115C], for which the self-cleavage was 0.71.
On to UACGUAGGUGGUUUUCCCCUGAUAGUGCUAAGGGGGCCUGGAGGUUUGGACUGGGCAGAGCUCAACACAGCGUGGCAGAGUGGCUGUGGCUAGACUGCCUCUCUGGAUUCCUCGUCACUCAGCAGGGCAUCUCUGAGAGAGAUGCC [A43G A78G A141G], for which the self-cleavage turned out to be 1.2.
UACGUAGGUGGUUUUCCCCUGAUAGUGCUAAGGGGGCCUGGUAGUUUGGACUGGGCAGAGCUCAACACAGCGUGGCAAAGUGGCUGUGGCUAGACUGCCACUCUGGAUUCCUCGUCACUCAGCAGGGCAACUCUGAGAGAAAUGCC [A42U U100A U130A]: the self-cleavage came out at 1.27.
As for UACGUAGGUGGUUUUCCCCUGAUAGUGCUAAGGGGGCCUGGUAGUUCGGACUGGGCAGAGCUCAACACAGCGUGGCAAAGUGGCUGUGGCUAGACUGCCUCUCUGGAUUCCUCGACACUCAGCAGGGCAUCCCUGAGAGAAAUGCC [A42U U47C U115A U132C], the self-cleavage worked out at 1.7.
The same measure for UACGUAGGUGGUUUUCCCCUGAUAGUGCUAAGGGGGCCUGGUAGUUUGGACUGGGCAGAGCUCAACACAGCGUGGCAAAGUGGCGGUGGCUAGACUGCCUCUCUGGAUUCCUCGUCACUCAGCAGGGCACCUCUGAGAGAGAUGCC [A42U U85G U130C A141G]: 0.05; for UACGUAGGUGGUUUUCCCCUGAUAGUGCUAAGGGGGCCUGGAGGUUUGGUCUGGGCAGAGCUCAACACAGCGUGGCAAAGUGGCUGUGGCUAGACUGCCUCUCUGGAUUCCUCGUCACUCAGCAGGGCACCUCUGAGAGAAAUGCC [A43G A50U U130C]: 1.15; for UACGUAGGUGGUUUUCCCCUGAUAGUGCUAAGGGGGCCUGGAGGUUUGGACUGGGCAGAGCUCAGCACAGCGUGGCAAAGUGGCUGUGGCUAGACUGCCUCUCUGGAUUCCACGUCACUCAGCAGGGCAUCUCUGAGAGAAAUGCC [A43G A65G U112A]: 0.
For UACGUAGGUGGUUUUCCCCUGAUAGUGCUAAGGGGGCCUGGAGGUUUGGGCUGGGCAGAGCUCAACACAGCGUGGCAAAGUGGCUGUGGCUAGACUGCCACUCUGGAUUCCUCGUCACUCAGCAGGGCAUCUCUGAGAGAAAUGCC [A43G A50G U100A], the self-cleavage came out at 0.48.
In the case of UACGUAGGUGGUUUUCCCCUGAUAGUGCUAAGGGGGCCUGGUAGUUUGGACUGGGCAGAGCUCAACACAGCGUGGCAAAGAGGCUGUGGCUAGACUGCCUCUCUGGAUUCCUCGCCACUCUGCAGGGCAUCUCUGAGAGAAAUGCC [A42U U81A U115C A121U], the self-cleavage came to 0.69.
Consider UACGUAGGUGGUUUUCCCCUGAUAGUGCUAAGGGGGCCUGGAGGUUUGGACUGGGCAGAGCUCAACACGGCGUGGCAAAGUGGCUGUGGCUAGACUGCCUCUCUGGAUUCCUCGUCACUCAGCAGGGCAUCCCUGAGAGAAAUGCC [A43G A69G U132C], for which the self-cleavage stood at 0.57.
In the case of UACGUAGGUGGUUUUCCCCUGAUAGUGCUAAGGGGGCCUGGAGGUUUGGACUGGGCAGAGCUCAGCACAGCGUGGCAAAGUGGCUGUGGCUAGACUGCCUCUCUGGAUUCCUCGUCACUCAGCAGGGCGUCCCUGAGAGUAAUGCC [A43G A65G A129G U132C A140U], the self-cleavage turned out to be 0.
Regarding UACGUAGGUGGUUUUCCCCUGAUAGUGCUAAGGGGGCCUGGAGGUUUGGACUGGGCGGAGCUCAACACAGCGUGGCAGAGUGGCUGUGGCUAGACCGCCUCUCUGGAUUCCUCGUCACUCAGCAGGGCAUCUCUGAGAGAAAUGCC [A43G A57G A78G U96C], the self-cleavage was determined as 1.02.
The same measure for UACGUAGGUGGUUUUCCCCUGAUAGUGCUAAGGGGGCCUGGUAGUUUGGACUGGGCAGAGCUCAACACAGCGUGGCAAAGUGGCUGUGGCUAGACUGCCUCUCUGGACUCCUCGUCACUCAACAGGGCAUCUCUGAGAGUAAUGCC [A42U U108C G122A A140U]: 1.2.
The result for UACGUAGGUGGUUUUCCCCUGAUAGUGCUAAGGGGGCCUGGUAGUUUGGACCGGGCAGAGCUCAACACAGCGUGGCAAGGUGGCUGUGGCUAGACUGCCACUCUGGAUUCCUCGUCACCCAGCAGGGCAUCUCUGAGAGAAAAGCC [A42U U52C A79G U100A U119C U143A] reads 0.14; that for UACGUAGGUGGUUUUCCCCUGAUAGUGCUAAGGGGGCCUGGACGUUUGGACUGGGCAGAGCUCAACACAGCGUGGCAAAGUGGCUGUGGCUAGACUGCCUCUCCGGGUUCCUCGUCACUCAGCAGGGCAUCUCUGAGAGAAAUGCC [A43C U104C A107G], 1.97; that for UACGUAGGUGGUUUUCCCCUGAUAGUGCUAAGGGGGCCUGGUAGUUUGGACUGGGCAGAGCUCAACACAGCGUGGCAAAGUGGCUGUGGCUAGACUGCCUCUCUGGAAUCCUCGCCACUCAGCAGGGCAUCUCUGAGAGAAACGCC [A42U U108A U115C U143C], 0.61.
The result for UACGUAGGUGGUUUUCCCCUGAUAGUGCUAAGGGGGCCUGGACGUUUGGACUGGGCAGAGCCCAACACAGCGUGGCAAAGUGGCUGUGGCUAGACUGCCUCUCUGGAUUCCUCGUCCCUCAGCAGGGCAUCCCUGAGAGAAAUGCC [A43C U62C A117C U132C] reads 0.14; that for UACGUAGGUGGUUUUCCCCUGAUAGUGCUAAGGGGGCCUGGAGGUUUGGACUGGGCAGAGCUCAACACGGCGCGGCAAAGUGGCUGUGGCUAGACUGCCUCUCUGGAUUCCUCGUCACUCAGCAGGGCAUCUCUGAGAGAAAUGCC [A43G A69G U73C], 0.
With UACGUAGGUGGUUUUCCCCUGAUAGUGCUAAGGGGGCCUGGAGGUUUGGACUGGGCAGAGCUCAGCACAGCGUGGCAAAGUGGCUGUGGCUAGACUGCCUCUCUGGAUUCCUCGUCACUCAGCAGGGCACCUCUGAGAGAAAUGCC [A43G A65G U130C], the self-cleavage was found to be 0.
As for UACGUAGGUGGUUUUCCCCUGAUAGUGCUAAGGGGGCCUGGACGCUUGGACUGGGCAGAGCUCAACACAGCGUGGCAAAGCGGCUGUGGCUAGACUGCCUCUCUGGAUUCCUCGUCACUCAGCAGGGCAUCUCUGAGAGAAAUGCC [A43C U45C U81C], the self-cleavage is 0.
For the variant UACGUAGGUGGUUUUCCCCUGAUAGUGCUAAGGGGGCCUGGUAGUUUGGACUGGGCAGAGCUCAACACAGCGUGGCAAAGAGGCUGUGGCUAGACUGCCUCUCUGGAUUCCUCGUCGCUCAGCAGGGCAUCUCUGAGAGAAAUGCC [A42U U81A A117G], the self-cleavage came out at 1.97.
Regarding UACGUAGGUGGUUUUCCCCUGAUAGUGCUAAGGGGGCCUGGACGUUUGGACUGGGCAGAGCUCAACACAGCGUGGCAAAGUGGCUGUGGCUAGACUGCCUCUCUGGAUUCCUCGCCACUCAGCAGGGCAUCUCCGAGAGAAAUGAC [A43C U115C U134C C145A], the self-cleavage is 0.92.
Take UACGUAGGUGGUUUUCCCCUGAUAGUGCUAAGGGGGCCUGGAGGUUUGGACUGGGCAGAGCUCAACUCAGCGUGGCAAAGUGGCUGUGGCUAGACUGCCUCUCUGGAUUCCUCGUCACUCAGCAGGGCAUCUCUGAGGGAAAUGCC [A43G A67U A138G]: the self-cleavage came to 0.09.
The result for UACGUAGGUGGUUUUCCCCUGAUAGUGCUAAGGGGGCCUGGAGGUUUGGACUGGGCAGAGCUCAACGCAGCGUGGCAAAGUGGCUGUGGCUAGACUGCUUCUCUGGAUUCCUCGUCACUCAGCAGGGCGUCUCUGAGAGAAAUGCC [A43G A67G C99U A129G] reads 0.18; that for UACGUAGGUGGUUUUCCCCUGAUAGUGCUAAGGGGGCCUGGAGGUUUGGUCUGGUCAGAGCUCAACACGGCGAGGCAAAGUGGCUGUGGCUAGACUGCCUCUCUGGAUUCCUCGUCACUCAGCAGGGCAUCUCCGAGGGAAAUGCC [A43G A50U G55U A69G U73A U134C A138G], 0.
The same measure for UACGUAGGUGGUUUUCCCCUGAUAGUGCUAAGGGGGCCUGGAGGUUUGGACUGGGCAGAGCUCAACACAGCGUGGCAGAGUGGCUGUGGCUAGACUGCCUCUCUGGAUUCCUCGCCUCUCAGCAGGGCAUCUCUGUGAGAAAUGCC [A43G A78G U115C A117U A136U]: 1.45.
Regarding UACGUAGGUGGUUUUCCCCUGAUAGUGCUAAGGGGGCCUGGAGGUUUGGACUGGGCAGAGCUCGACACAGCGUGGCAAAGUGGCUGUGGCUAGACUGCCUCUCUGGAUUCCUCGUCACUCAGCAGGGCAUCUCUGAGAGAAACGCC [A43G A64G U143C], the self-cleavage stood at 0.25.
As for UACGUAGGUGGUUUUCCCCUGAUAGUGCUAAGGGGGCCUGGUAGUUUGGACUGGGCAGAGCUCAACACAGCGUGGCAAAGUGGCUGUGGCUAGACUGCCUCUCCGGAUUCCUCGUCACUCAGCAGGGCAUCUCUGAGGGAAAUGCC [A42U U104C A138G], the self-cleavage was 2.02.
UACGUAGGUGGUUUUCCCCUGAUAGUGCUAAGGGGGCCUGGAGGUUUGGACUGGGCGGAGCUCAACACAGCGUGGCAAAGUGGCUGUGGCUAGACUGCCUUUCUGGAUUCCUCGUCACUCAGCAGGGCAUCUCUGAGAGAAAUGCC [A43G A57G C101U]: the self-cleavage came out at 0.59.
The result for UACGUAGGUGGUUUUCCCCUGAUAGUGCUAAGGGGGCCUGGUAGUUAGGACUGGGCAGAGCUCAGCACAGCGUGGCAAAGUGGCUGUGGCUAGACUGCCUCUCUGGAUUCCUCGUUACUCAGCAGGGCAUCUCUGAGAGAAAUGCC [A42U U47A A65G C116U] reads 0.02.
With UACGUAGGUGGUUUUCCCCUGAUAGUGCUAAGGGGGCCUGGAGGUUUGGACUGGGCAGAGCUCGACACAGCGUGGCAAAGUGGCUGUGGCUAGACUGCCUCUCUGGAUUCCUCGUCACUCAGCAGGGCAUCUCAGAGAGAAAUGCC [A43G A64G U134A], the self-cleavage was 0.49.
